According to ChEMBL document CHEMBL1156829:
The full ranking holds about 5,400 compounds; the median of “IFI” is about 2, and the highest 2% start at about 22. This is one part of the list.

Experiment: NOVARTIS: Inhibition Frequency Index (IFI) - the number of HTS assays where a compound showed > 50% inhibition/induction, expressed as a percentage of the number of assays in which the compound was tested.
Type: functional
With `CCCCN1C=CC=C/C1=C\c1sc2ccccc2[n+]1CC` the IFI was 18.2%.
In the case of `CC(=O)Oc1ccccc1-c1nc2cc(C)ccn2c1NC(C)(C)CC(C)(C)C`, the IFI is reported as 4.67%.
`CCCNC(=O)CSc1nc(C)c(Cc2ccccc2)c(=O)n1C` gave an IFI of 0.926%.
`CCOC(=O)c1c(NC(=O)CSc2nnc(CNC(=O)c3cccs3)n2-c2ccccc2OC)sc2c1CCC2` gave an IFI of 2.41%.
In the case of `COc1cc(C=NNC(=O)c2ccco2)ccc1OCc1ccc([N+](=O)[O-])cc1`, the IFI is reported as 0%.
Molecule `CC[n+]1c(C=C2Sc3ccccc3N2CCO)sc2ccccc21` has an IFI of 4.69%.
`COc1ccccc1NC1=CC(=NS(=O)(=O)c2ccccc2)c2ccccc2C1=O` showed an IFI of 21.4%.
Molecule `COC(=O)C1=CN(Cc2ccc(OC)cc2)C=C(C(=O)OC)C1c1cccs1` has an IFI of 2.5%.
Work on `c1ccc(-c2nc(-c3ccc4cccnc4c3)n(-n3c(-c4ccc5cccnc5c4)nc(-c4ccccc4)c3-c3ccccc3)c2-c2ccccc2)cc1` yielded an IFI of 0%.
`O=C(Nc1ccc(C23CC4CC(CC(c5ccccc5)(C4)C2)C3)cc1)c1cccs1` showed an IFI of 0%.
With `CCN(CC)CCCC(C)NCc1ccc(OC)c(OCc2ccccc2)c1` (configuration not stated) the IFI was 7.14%.
For `COc1ccc(-c2ccc(C=NNC(=O)CNC(=O)c3ccc4c(c3)OCO4)o2)cc1Cl`, the IFI was 0%.
In the case of `CCCCCCc1ccc(C(=O)Oc2ccccc2-c2nc3cc(C)ccn3c2NC(C)(C)CC(C)(C)C)cc1`, the IFI is reported as 2.1%.
`CSCCC(C(=O)NCC(=O)O)N1C(=O)c2cc(NC(C)=O)ccc2NC(=O)[C@@H]1c1ccccc1` (some centres not stated) gave an IFI of 1.22%.
In the case of `Cc1ccn2c(NC(C)(C)CC(C)(C)C)c(-c3ccccc3OC(=O)C3CCCC3)nc2c1`, the IFI is reported as 3.74%.
Work on `O=c1c2c3c(sc2ncn1CC1CCCCC1)CC(NCc1cccnc1)CC3` (configuration not stated) yielded an IFI of 1.71%.
Molecule `CC(C)(C)c1nn(-c2ccc(Cl)cc2)c2[nH]c(=O)c(CNCc3ccc(Cl)cc3)cc12` has an IFI of 5.56%.
`COc1ccc(-c2nc(-c3ccc4c(c3)-c3cc(-c5[nH]c(-c6ccc(OC)cc6)nc5-c5ccccc5)ccc3C4=O)c(-c3ccccc3)[nH]2)cc1` gave an IFI of 1.54%.
`CC(C)(C)c1ccc(/C=C/C(=O)NCc2ccco2)cc1` gave an IFI of 0%.
With `Cc1ccc(NC(=O)c2sc3nc4c(c(-c5cccs5)c3c2N)CCCCC4)cc1` the IFI was 2.41%.
For `O=C1c2ccccc2-c2nc3c(Cl)cc(C(F)(F)F)cc3nc21`, the IFI was 6.36%.
With `CCN1C(=Cc2ccc3ccccc3[n+]2CC)C=Cc2sc3ccccc3c21` the IFI was 31.4%.
With `CCOC(=O)NN=C1c2ccccc2-c2nc3nonc3nc21` the IFI was 15.4%.
Work on `NC(=O)c1ccc2[nH]c3c(c2c1)CCCC3` yielded an IFI of 0%.
Work on `Cc1ccc(NC(=O)C2C3C=CC4(O3)C2C(=O)N(Cc2cccnc2)C4C(=O)NC2CCCCC2)cc1` (configuration not stated) yielded an IFI of 0%.
`CCCOC(=O)C1=C(C)NC2=C(C(=O)CC(c3ccc(OC)cc3)C2)C1c1cccc(F)c1` (configuration not stated) gave an IFI of 2.35%.
Work on `CC(Sc1nnc2c3ccccc3n(Cc3ccccc3)c2n1)C(=O)N1CCN(C(=O)C(c2ccccc2)c2ccccc2)C(C)C1` (configuration not stated) yielded an IFI of 1.89%.
With `COc1ccc(OC)c(C2CC(=O)C3=C(C2)NC(=O)CC3c2ccc([N+](=O)[O-])cc2)c1` (configuration not stated) the IFI was 0%.
`CC[n+]1c(SC)ccc2cc(OC)ccc21` showed an IFI of 7.94%.
Work on `O=C(C1CC1)N1CCc2cc(Br)cc(S(=O)(=O)N3CCCCC3)c21` yielded an IFI of 0%.
With `O=C(CCl)Nc1ccc(S(=O)(=O)OCC(F)(F)C(F)F)cc1` the IFI was 7.69%.
Work on `CCOc1cc(C2CC(=O)NC3=C2C(=O)CC(c2ccc(OC)cc2)C3)cc(Cl)c1O` (configuration not stated) yielded an IFI of 0%.
`COC(=O)c1ccc(C2C3=C(CC(c4ccc(OC)cc4)CC3=O)Nc3ccccc3N2C(=O)c2ccccc2)cc1` (configuration not stated) gave an IFI of 3.66%.
For `Cc1nc(C(C)N(C)Cc2c(C(=O)N3CCCCCCC3)nc3sccn23)c(C)s1` (configuration not stated), the IFI was 0%.
`COc1cc(Nc2cncc(-c3ccc(C(N)=O)cc3)n2)cc(OC)c1OC` gave an IFI of 0%.
`Oc1ccc(-c2ccnc3cc(Cl)ccc23)cc1CNCCN1CCOCC1` showed an IFI of 1.72%.
For `COc1cc(/C=C(\C#N)c2nc3ccccc3[nH]2)ccc1OCc1ccccc1F`, the IFI was 4.76%.
Work on `Cc1nc2ccccc2n1S(C)(=O)=O` yielded an IFI of 1.82%.
Work on `CCOC(=O)C1=C(C)N/C(=C/c2cc(C)n(-c3ccccc3C(F)(F)F)c2C)C1=O` yielded an IFI of 0%.
With `CC1(C)C(=O)C2(CCCCC2)C(=O)OC1/C=C/c1ccccc1` (configuration not stated) the IFI was 1.49%.
With `CCCOC(=O)C1=C(C)NC2=C(C(=O)CC(c3ccc(OC)c(OC)c3)C2)C1c1cccc(Br)c1` (configuration not stated) the IFI was 8.86%.
In the case of `CCCCN1C(=O)NC(c2ccc(NC(=O)c3cccs3)cc2)C(C(=O)OC(C)C)=C1C` (configuration not stated), the IFI is reported as 6.41%.
With `O=S(=O)(Nc1cc(Sc2nc[nH]n2)c(O)c2ccccc12)c1ccc(F)cc1` the IFI was 23.1%.
With `Cc1nc(-c2nc3c(s2)CN(C(=O)CCc2cccnc2)CC3)cs1` the IFI was 4.17%.
`COc1ccc(NC(=O)c2cc3cc(C4(O)CCN(Cc5cc6ccccc6[nH]5)CC4)ccc3o2)cc1` gave an IFI of 8.47%.
With `CNC1=C(N(Cc2ccc(Cl)c(Cl)c2)C(C)=O)C(=O)c2ccccc2C1=O` the IFI was 14.3%.
In the case of `O=C(CN1CCN(S(=O)(=O)c2cccc([N+](=O)[O-])c2)CC1)Nc1ccc(OCc2ccccc2)cc1`, the IFI is reported as 0%.
